The inconclusive results got no clear call from the source; some entries with a clear call stand among them for comparison. Where a call stands in place of a potency, no number is given. Where the call is inconclusive, the potency comes from a doubtful curve fit. Active and inactive are the calls of the source. The call rests on the fitted dose curve; in most records, active means well fitted cell-killing curve with a large enough effect; inconclusive means small, poorly fitted or top-dose-only effect, or effect the other way; inactive means flat fitted curve, though single readings scatter.
The compounds below were run on HeLa (assay: Primary qHTS to identify gynecologic anti-cancer compounds using libraries of approved drugs and bioactive compounds (AID 1345084; further: nearly all actives have a fitted effect of over 55% in size)). Conditions: Gynecologic cancer cell panel viability, ATPlite luminescence, 48 h; activity change, negative = cytotoxicity: at 57.5 µM (top of the series).
How it was run: (§1)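 Cells, 1,000 per well, plated 16 h, then exposed 48 h at 37 C to compounds. Viability by ATPlite luminescence after 15 min at room temperature.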
`C/C=C(/C=C(C)/C=C/C=C/C=C(\C)C(=O)C12OC1C(O)(CCO)NC2=O)C(=O)OC` (centres undefined) was tested, and the Potency was “inactive”.
`CCCn1cc2c(nc(NC(=O)Nc3ccc(OC)cc3)n3nc(-c4ccco4)nc23)n1` was tested, and the Potency was “inactive”.
`Clc1ncoc1-c1c[nH]c2ccccc12` was tested, and the Potency was inconclusive: 12.6 µM [cytotoxic, partial curve, poor fit].
In the case of `CC(C)(C)NC(=O)[C@H]1CC[C@H]2[C@@H]3CC[C@H]4NC(=O)CC[C@]4(C)[C@H]3CC[C@]12C`, the Potency is reported as “inactive”.
For `C=C1CC2C(C)(CCC(=O)O)C(C(C)(C)O)CCC2(C)C2(C(=O)OC)C(=O)C(C)(O)C(=O)C12C` (centres undefined), the Potency was “inactive”.
With `Nc1nc2c(s1)CCN(Cc1ccc(Cl)cc1)CC2` the Potency was “inactive”.
`CC(C)(C)OC(=O)c1ncn2c1C(C)(C)Nc1ccccc1-2` was tested, and the Potency was “inactive”.
In the case of `CC(C)c1cc2c(c(O)c1O[C@@H]1O[C@H](CO)[C@@H](O)[C@H](O)[C@H]1O)CC1(O)CCC(O)C(C)(C)C1CC2` (some centres undefined), the Potency is reported as “inactive”.
In the case of `C[C@@H](O)[C@H]1C(=O)N2C(C(=O)O)=C(S[C@@H]3CN[C@H](CNS(N)(=O)=O)C3)[C@H](C)[C@H]12`, the Potency is reported as “inactive”.
With `CC(C)(C)c1ccc(C(=O)CCCCl)cc1` the Potency was inconclusive: 39.8 µM [cytotoxic, partial curve, poor fit].
In the case of `CC(=O)O[C@@H]1[C@H](O[C@@H]2O[C@H](CO)[C@@H](O)[C@H](O)[C@H]2O)[C@@H](O[C@@H]2O[C@@H](C)[C@H](O)[C@@H](O[C@@H]3O[C@H](CO)[C@@H](O)[C@H](O)[C@H]3O)[C@H]2O)[C@H](OC(=O)[C@]23CCC(C)(C)C[C@H]2C2=CCC4[C@@]5(C)C[C@H](O)[C@H](O[C@@H]6O[C@H](C(=O)O)[C@@H](O)[C@H](O)[C@H]6O)[C@@](C)(C(=O)O)C5CC[C@@]4(C)[C@]2(C)CC3)O[C@@H]1C` (some centres undefined), the activity change, negative = cytotoxicity is reported as inactive: 0.873% [at 6.55 µM].

These compounds were tested on Hek293T in the same assay as above. Conditions: Gynecologic cancer cell panel viability, ATPlite luminescence, 48 h, control line for the selectivity index; activity change, negative = cytotoxicity: at 57.5 µM (top of the series) unless noted.
How it was run: as §1
In the case of `CC(C)OC(=O)N1CCC(Oc2ncnc3c2cnn3-c2ccc(S(C)(=O)=O)cc2F)CC1`, the Potency is reported as inconclusive: 39.8 µM [cytotoxic, single point].
`COc1cc(C2OCC3(O)C(c4ccc(O[C@@H]5O[C@H](CO)[C@@H](O)[C@H](O)[C@H]5O)c(OC)c4)OCC23O)ccc1O` (some centres undefined) was tested, and the Potency was inconclusive: 10 µM [cytotoxic, single point].
For `CC1=CCC2C(C)(C)CCCC2(C)C1CC12OC1C(O)C(CO)=CC2O` (centres undefined), the Potency was “inactive”.
In the case of `OC[C@H]1O[C@@H](OCc2ccccc2)[C@H](O)[C@@H](O)[C@@H]1O`, the Potency is reported as “inactive”.
With `CC(C)(O)C1CC=C(C(=O)OC[C@H]2O[C@@H](Oc3cc(C(=O)O)cc(O)c3O)[C@H](O)[C@@H](O)[C@@H]2O)CC1` (some centres undefined) the Potency was “inactive”.
With `O=C([C@@H](Cc1cccc(C(F)(F)F)c1)NS(=O)(=O)c1cc(F)c2c(c1)CCNC2)N1CCCC1` the Potency was “inactive”.
For `CC(C)S(=O)(=O)c1ccc2nccc(Nc3ccc4scnc4c3)c2c1`, the Potency was “inactive”.
With `Cn1c2ccc(NC(=O)c3ccccc3)cc2c(=O)n2nc(C(=O)O)cc12` the Potency was “inactive”.
With `CN(C)C(=O)Nc1cccc(-c2ccc(N(C)C)cc2)c1` the Potency was inconclusive: 39.8 µM [cytotoxic, single point].
With `Cc1ccnc(NC(=O)C(C)c2cccc(C(=O)c3ccccc3)c2)c1` (centres undefined) the Potency was “inactive”.
With `O=C1COC2(CCN(S(=O)(=O)c3ccc(-c4ccc5cccnc5c4)cc3)CC2)CN1C1CC1` the Potency was “inactive”.
`CO[C@H]1O[C@@H]2O[C@@]3(C)CCC4[C@H](C)CCC([C@H]1C)[C@]42OO3` (some centres undefined) was tested, and the Potency was “inactive”.
With `CC(=O)O[C@]1(C(C)=O)CC[C@H]2[C@@H]3C=C(C)C4=CC(=O)CC[C@]4(C)[C@H]3CC[C@@]21C` the Potency was “inactive”.
In the case of `CCNC1(C(N)=O)CN(c2nc(C)nc3c(-c4ccc(Cl)cc4)c(-c4ccccc4Cl)nn23)C1`, the Potency is reported as “inactive”.
For `C=C[C@H]1CN2CC[C@H]1C[C@@H]2[C@@H](O)c1ccnc2ccc(OC)cc12`, the Potency was “inactive”.
With `CCC(C)/C=C(C)/C=C/C1=CC2=C(Cl)C(=O)C(C)(OC(C)=O)C(=O)C2(O)C(OC)O1` (centres undefined) the Potency was inconclusive: 17.8 µM [rising, single point].
For `CC1(CO)CC(O)[C@]2(C(=O)O)CCC34CC3(C=CC3[C@]5(C)C(CC[C@]34C)C(C)(CO)[C@@H](O)[C@H](O)[C@@H]5O)C2C1` (some centres undefined), the Potency was “inactive”.
For `CC(=O)O[C@@]1(C)[C@@H]2CC(=C(C)C)C(=O)C[C@@]2(C)CC[C@H]1OC(=O)C1(C)OC1C` (some centres undefined), the Potency was “inactive”.
In the case of `CC(=O)NC[C@H]1CN(c2ccc(N3CCSCC3)c(F)c2)C(=O)O1`, the Potency is reported as “inactive”.
In the case of `C=C[C@H]1[C@H](O[C@@H]2O[C@H](CO[C@@H]3OC[C@](O)(CO)[C@H]3O)[C@@H](O)[C@H](O)[C@H]2O)OC=C2C(=O)OCC[C@H]21`, the Potency is reported as “inactive”.
For `CC(C)Nc1nc(Nc2ccccc2)nc(-c2ccccc2)n1`, the Potency was “inactive”.
With `O=[N+]([O-])c1cn2c(n1)OC[C@@H](OCc1ccc(-c3ccc(OC(F)(F)F)cc3)nc1)C2` the Potency was “inactive”.
In the case of `COc1cc(/C=C2\CC[C@H]3COC[C@@H](c4cc(F)c(F)c(F)c4)N3C2=O)ccc1-n1cnc(C)c1`, the Potency is reported as “inactive”.
`Cc1ccc(Cl)c(OCC(O)CNC(C)(C)C)c1` (centres undefined) was tested, and the Potency was inconclusive: 39.8 µM.
With `O=C(O)CCc1nccc2c1[nH]c1ccccc12` the Potency was “inactive”.
For `O=C(O)C1=CO[C@@H](O[C@@H]2O[C@H](CO)[C@@H](O)[C@H](O)[C@H]2O)[C@@H]2C(CO)=CC[C@H]12`, the Potency was “inactive”.
`C[C@@H]1CC[C@]2(C(=O)O)CC[C@]3(C)C(=CCC4[C@]5(C)C(CC[C@]43C)C(C)(C)[C@@H](O)[C@H](O)[C@@H]5O)C2[C@]1(C)O` (some centres undefined) was tested, and the Potency was “inactive”.
`CC(=O)SC[C@@H](Cc1ccccc1)C(=O)NCC(=O)OCc1ccccc1` was tested, and the Potency was “inactive”.
Potency means the concentration at half of the fitted maximal effect; tags describe the fitted curve by direction and shape.
